# Assay results published in the supplement of paper PMC3334620.
# The full ranking holds about 33,000 sequences; the median of “E-score (-0.5 to 0.5)” is about -0.053, and the highest 2% start at about 0.37. This is one part of the list.
# Target: Hap1 (UniProt P0CE41)
# Experiment: PBM E-score (8-mer binding enrichment) (E-score (-0.5 to 0.5)); higher = stronger / more preferred TF binding; most listed sequences are background and not binding sites
# Details: protein concentration: 200 nM; construct: GST-DNA-binding domain
# Method: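 Universal 'all 10-mer' protein binding microarrays (Agilent AMADID 015681) probed with GST-tagged S. cerevisiae TFs (full-length or DBD) made by in vitro transcription/translation (PURExpress), about 100-200 nM. Bound TF was detected with fluorescent anti-GST. Each ungapped 8-mer (which stands for itself and its reverse complement) is scored by the PBM enrichment score (E-score), a modified Wilcoxon-Mann-Whitney statistic from -0.5 to +0.5, computed with the Universal PBM Analysis Suite. Scale: above 0.35 generally sequence-specific binding.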
# UniProt P0CE41, sequence (P0CE41 whole entry): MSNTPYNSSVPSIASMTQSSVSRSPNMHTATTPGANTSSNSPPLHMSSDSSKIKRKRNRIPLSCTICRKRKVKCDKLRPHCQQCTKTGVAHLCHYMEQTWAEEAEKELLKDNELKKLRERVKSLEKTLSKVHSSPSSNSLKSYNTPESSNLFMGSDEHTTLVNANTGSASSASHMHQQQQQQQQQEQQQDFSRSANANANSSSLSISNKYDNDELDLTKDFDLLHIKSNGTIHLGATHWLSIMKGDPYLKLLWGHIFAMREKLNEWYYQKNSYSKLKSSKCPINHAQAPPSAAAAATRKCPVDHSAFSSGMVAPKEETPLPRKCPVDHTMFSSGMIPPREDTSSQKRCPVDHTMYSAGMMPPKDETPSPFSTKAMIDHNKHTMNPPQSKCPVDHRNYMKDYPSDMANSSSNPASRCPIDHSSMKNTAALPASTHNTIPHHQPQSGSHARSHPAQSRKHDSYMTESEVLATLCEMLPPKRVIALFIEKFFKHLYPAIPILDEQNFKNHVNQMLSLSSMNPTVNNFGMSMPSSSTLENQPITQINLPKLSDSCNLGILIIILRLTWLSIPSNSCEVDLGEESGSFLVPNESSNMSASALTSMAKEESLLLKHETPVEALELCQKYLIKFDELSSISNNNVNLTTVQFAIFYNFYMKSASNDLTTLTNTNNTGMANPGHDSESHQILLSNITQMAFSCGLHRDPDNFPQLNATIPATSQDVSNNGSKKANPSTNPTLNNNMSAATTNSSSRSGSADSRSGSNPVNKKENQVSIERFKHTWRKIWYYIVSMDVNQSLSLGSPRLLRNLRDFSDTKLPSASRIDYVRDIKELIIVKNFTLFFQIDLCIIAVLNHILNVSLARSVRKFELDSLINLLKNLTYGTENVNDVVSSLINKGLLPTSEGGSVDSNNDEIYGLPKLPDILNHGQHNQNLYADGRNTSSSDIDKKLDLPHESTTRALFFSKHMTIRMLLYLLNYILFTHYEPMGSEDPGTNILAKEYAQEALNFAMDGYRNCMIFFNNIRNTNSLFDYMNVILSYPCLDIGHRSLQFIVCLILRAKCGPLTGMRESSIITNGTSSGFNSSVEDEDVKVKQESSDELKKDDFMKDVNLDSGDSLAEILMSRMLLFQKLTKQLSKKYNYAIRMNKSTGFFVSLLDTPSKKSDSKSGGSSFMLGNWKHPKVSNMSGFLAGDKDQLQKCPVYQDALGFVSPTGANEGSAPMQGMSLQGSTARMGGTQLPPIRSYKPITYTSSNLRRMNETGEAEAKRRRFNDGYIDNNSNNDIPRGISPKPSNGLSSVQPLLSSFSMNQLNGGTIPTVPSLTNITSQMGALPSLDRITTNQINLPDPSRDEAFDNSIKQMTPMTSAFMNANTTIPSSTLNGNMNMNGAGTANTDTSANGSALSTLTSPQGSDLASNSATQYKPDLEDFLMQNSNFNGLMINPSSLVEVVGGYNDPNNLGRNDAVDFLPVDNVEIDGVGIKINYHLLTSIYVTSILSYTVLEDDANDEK
row,Sequence,PBM E-score
1,TACGGACA,0.291
2,AGAATGTC,-0.086
3,ATCTTGTA,-0.181
4,TAAGCCAA,-0.0972
5,TACACGCA,-0.152
6,ACACAATA,-0.0991
7,GACAGTGA,-0.109
8,CGCCATAA,-0.0284
9,GAGAACAC,-0.14
10,GAACCACA,-0.0552
11,TCGAAGCA,-0.306
12,ACCCAGAT,-0.142
13,ATAAGTCC,0.348
14,GACGTGAC,-0.157
15,CGGACGTC,0.258
16,GGAGCGAA,0.00746
17,ATGGCATC,-0.106
18,AGATTTCA,0.0182
19,TATTAAGA,0.041
20,ATCTATTC,-0.146
21,GTATTTGA,-0.261
22,CCTGTTCC,-0.152
23,CGTCGCAC,0.00416
24,ACGGGATG,0.0154
25,CGGTACGC,0.24

row,Sequence,PBM E-score
1,GGGTCACA,-0.147
2,GGGCAGTA,0.0359
3,CGGGCATC,0.0909
4,GATAATAA,0.182
5,CGGAAGTA,0.38
6,CCCCACCG,0.209
7,GATATTGC,0.187
8,GCCGAAGC,0.288
9,AGGTGCCG,0.196
10,CCGTAGAG,-0.00236
11,CGCTAAAC,0.161
12,CAGTAAGC,-0.0562
13,ATGCCCAG,-0.0272
14,GTTCACCA,-0.136
15,AATTCATC,-0.0321
16,AGCCCCAG,-0.0767
17,AATGAGCA,-0.0376
18,GCGAAGAC,0.134
19,CGTTCTTC,-0.0849
20,GAAAACCC,0.132
21,TGCGTAAA,-0.0968
22,TATGCTCA,-0.0315
23,ATGTCCAA,-0.0231
24,CCTTGCAA,-0.308
25,GCTGTGAA,-0.184

row,Sequence,PBM E-score
1,ATTCAAAC,-0.0188
2,ACGGGAGA,-0.0781
3,CCCAACCA,-0.00113
4,ACAGGTTA,-0.297
5,AGTAGTCG,-0.0254
6,AGGAGTAC,-0.207
7,AATTTTAT,0.187
8,ACCAATGA,-0.187
9,CACCATTC,-0.213
10,ATAGTTGG,-0.217
11,AGTCCGAA,0.416
12,CCCAAGGG,-0.232
13,GTGACGAA,-0.168
14,ACCGGGAC,0.184
15,AATAAGAG,0.14
16,AGTGCCAT,-0.0559
17,GACCAATA,-0.0319
18,GCACTAGC,-0.00669
19,CCGCCCTC,0.0458
20,GGCTGCTA,-0.0615
21,CCGTCGGA,0.335
22,CAAGTTTC,-0.18
23,ACCATGCT,-0.0871
24,CTAGCTGC,-0.0293
25,ACCCACAA,-0.0145

row,Sequence,PBM E-score
1,GACTGACC,-0.135
2,AGAGCAGC,-0.271
3,TCCATTCA,-0.128
4,CAACTCGG,0.197
5,ATACGTCA,0.0245
6,AGCGGTCG,0.123
7,ATGTTCTA,-0.02
8,AAACTTGC,-0.0544
9,ACCTCCCA,-0.27
10,CCTTATTA,-0.0477
11,AAGGCATT,-0.24
12,AAAGGTGT,-0.0258
13,CAGGACTC,-0.181
14,CCCCAGAG,-0.261
15,ACCCACTC,0.00284
16,AATTGACT,-0.056
17,ATCGGCCA,0.253
18,ACCAGCCA,-0.222
19,CACGTACC,-0.172
20,GACGACGC,-0.0193
21,CGTGTCAC,-0.111
22,GCTTTCCC,0.0688
23,CTTGTACC,-0.086
24,TACAGCGA,-0.177
25,CGGGTGTA,0.354

row,Sequence,PBM E-score
1,AAATGGCT,-0.188
2,ATTCAATG,-0.0713
3,AAGGTTAC,-0.0661
4,ATCGTCTC,0.125
5,ACTACTAC,-0.0209
6,AGCTCGTA,-0.255
7,TGCATGCA,-0.0519
8,CGTGGCAC,-0.144
9,CAGAGTCC,0.0584
10,CCCAGCTC,0.0829
11,GAATCCTC,-0.0731
12,CCCTAGCC,-0.138
13,CTTTAGGC,-0.0579
14,ACGTACAA,-0.0674
15,GCCCGGCA,0.25
16,ATGACGCA,-0.147
17,CTCAACGA,-0.114
18,ATGGGAGG,-0.157
19,CTATTACC,0.119
20,ACGGGTAC,-0.113
21,GGGCTGAC,0.138
22,AAGTAGAG,-0.289
23,TAAAATGA,0.00088
24,CCAGTGGC,-0.175
25,AAGGTCGG,0.152

row,Sequence,PBM E-score
1,AGCTTCTA,-0.0403
2,AATAAGTG,-0.212
3,ACACATCT,-0.0207
4,CCCACTAA,0.00959
5,AGAAATGA,-0.239
6,TACCAGAA,-0.0124
7,ATGACCCC,0.061
8,CGTTCGAC,-0.0605
9,ACCGACTC,0.0952
10,AGACATAG,-0.0261
11,TCAATGAA,-0.123
12,ATTGCGCC,0.14
13,AGCGGCTA,0.0823
14,AGAACACA,-0.215
15,AGGTTAGC,-0.063
16,CTATGTGA,-0.203
17,CGAACATA,0.155
18,CAGTCAAG,-0.257
19,GGATCCCA,0.0514
20,GCACCTAC,-0.098
21,TAGACCAA,-0.201
22,CAGTGATG,-0.328
23,AAAAAATC,0.0109
24,GGGGGGAC,-0.203
25,CCGCTGAG,0.0237

row,Sequence,PBM E-score
1,ACTTGGAC,0.106
2,ACCTTCTC,-0.0081
3,ACCTGCCG,-0.0501
4,CGCGGCAA,0.223
5,GTACTTGA,-0.199
6,CCTCGTAG,-0.307
7,ACTACATG,-0.16
8,ATTTCATA,-0.114
9,GTCAGGCA,-0.182
10,CAGTCGGC,0.238
11,ACAAAGAG,-0.212
12,CGGATACG,0.228
13,ATCTACGG,0.299
14,CCAGCCAA,-0.0334
15,AGCTCACT,-0.218
16,AGTTCGTG,-0.0492
17,CGTTGCTA,-0.189
18,CTTAACGA,0.0142
19,CGTGTTGA,-0.00374
20,AGCTATCG,0.21
21,CGTAGTGC,0.0151
22,GATATGCC,0.171
